According to the supplement of paper PMC11417369:
This is one part of the list.

The sequences below were run on PfSIP2 AP2 domain 1 (GST-tagged) (assay: gcPBM binding intensity (ln(normalized median fluorescence intensity)); higher = stronger DNA binding).
Outline: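 An Agilent 4 × 180k array carrying primer-extended double-stranded 36-bp intergenic genomic probes and negative controls received GST-tagged P. falciparum DNA-binding domains expressed in E. coli, about 25 μg on average, for 1 h. The binding buffer contained 1× PBS, 1% milk, 0.2 mg/ml BSA, 0.5% salmon testes DNA and 0.03% Triton X-100. Binding intensity is the top Masliner-normalised natural-log median intensity across replicate spots of either probe orientation, read after Alexa488 anti-GST antibody staining and a 488 nm scan.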

Sequence	gcPBM binding intensity (ln)
ATATATACATACATATGTACATATGTAGATATATTT [XGTACX_site1230]	7.19
ATTTTTTTTGTTTATTCTTATGTGGTTATTAAATTA [CACACA_negctrl_site1000]	7.44
ATTATGAAATATCGTGCACACACGAATAATATAAGA [CACACA_site1294]	9.15
TATTTGTTTAAATTCACACACGTATATATATTTATA [CACACA_site5651]	7.17
TACGTTTTAAAACACACACACAAAAAAAAAAAAAAA [CACACA_site3876]	7.01
AAAAGAGAAATGGGCACACACACACCCATTATATAT [CACACA_site1530]	6.88
ATTTTTATATATATCTGTACTAAAAAAAAAAAAAAA [XGTACX_site5258]	7.1
AGAAGTAAAAAAATAGCACACACACTAATACCAACA [CACACA_site8354]	7.22
AAACAAAAAAGAAAAACAATGAGATAAAGAAGAGAA [CACACA_negctrl_site804]	7.05
TTTAATTATTTATTTTGTACATATATTATATATATA [XGTACX_site5760]	7.71
AAAAGAAAAATATTCACACATATAAATAATATATAA [CACACA_site4201]	6.58
TTATATTAATATTATATTTAAAAATAAAATATAAAT [TGCATGCA_negctrl_site79]	6.84
TATTTATATATTTGTTGTACGTATTTATATATTCTT [XGTACX_site3622]	7.09
TTTAAAAAAAGCAGTACATGCAAAATAATAACAAGC [TGCATGCA_site392]	7.58
TAAAAAAATATTACATGTACATAAAATATATATATA [XGTACX_site4633]	8.52
CAATTATATAATTGAAGTACTAGGAAAGATATATAT [XGTACX_site5459]	7.3
AATTAAATTCGGTACTGTACATTTCAAAAATATACG [XGTACX_site48]	7.02
CTTAAATTTTACTGAAGTACAAAATCGGTTCAATGA [XGTACX_site3292]	6.89
TATACATATTTTTTTTGTACATATATAATATATATA [XGTACX_site2399]	7.43
GGGAAAAAAAAAAGCACACATACGTAAATATATAAC [CACACA_site226]	7.03
ATGTGTTAAAAATGCACACAAAAAAATATACATATA [CACACA_site295]	7.35
ACATGTGAACATTCAATGCACACGATGTAATTATAC [CACACA_site14]	7.64
ATATTATATATATACACACACACATGCATGCACCTA [CACACA_site106]	11.1
TTTTTTAAATATATGGTGCATAGAAAGATATTATAC [GTGCAC_site9984]	10
